The results in this text go back to the GPR68 mutational scans of Howard et al. (2025).

First the molecules themselves.
B1: GPR68, Q15743 (parent)
chain: MGNITADNSSMSCTIDHTIHQTLAPVVYVTVLVVGFPANCLSLYFGYLQIKARNELGVYLCNLTVADLFYICSLPFWLQYVLQHDNWSHGDLSCQVCGILLYENIYISVGFLCCISVDRYLAVAHPFRFHQFRTLKAAVGVSVVIWAKELLTSIYFLMHEEVIEDENQHRVCFEHYPIQAWQRAINYYRFLVGFLFPICLLLASYQGILRAVRRSHGTQKSRKDQIQRLVLSTVVIFLACFLPYHVLLLVRSVWEASCDFAKGVFNAYHFSLLLTSFNCVADPVLYCFVSETTHRDLARLRGACLAFLTCSRTGRAREAYPLGAPEASGKSGAQGEEPELLTKLHPAFQTPNSPGSGGFPTGRLA

The variants in series [1] derive from B1. The experiment in a line: cAMP reporter score (Enrich2 score, wild type = 0); higher = more signal; HEK293T, FACS bins.
Variants of B1 are the subject of series [2]. As to the kind of experiment: surface expression score (Enrich2 score, wild type = 0); higher = more signal; HEK293T, FACS bins.

Scores with a large standard error are left out. Not listed are two conditions whose scores span a narrow range. In variant names, del marks residues removed and ins residues inserted between the two positions. For some of these results: How much ogerin was present is not stated here.

For E255_A256insGSG, the cAMP reporter score in series [1] (pH 5.5) was 0.179; in series [1] (pH 6), -0.619; in series [1] (pH 6, modulator: ogerin), 0.098; in series [1] (pH 6.5, modulator: ogerin) it was -0.809. Besides, in series [2], the surface expression score turned out to be 1.84.
As for W254del, the cAMP reporter score in series [1] (pH 5.5) is -0.309; in series [1] (pH 6), -0.604; in series [1] (pH 6.5, modulator: ogerin), -0.728. Besides, the surface expression score in series [2] was -2.03.
With L249del, the cAMP reporter score in series [1] (pH 5.5) is -0.43; in series [1] (pH 6, modulator: ogerin), -0.7. Besides, the surface expression score in series [2] is -0.411.
On to S257D, for which the cAMP reporter score is 0.492 in series [1] (pH 5.5); 2.35 in series [1] (pH 6); 0.92 in series [1] (pH 6, modulator: ogerin); 3 in series [1] (pH 6.5, modulator: ogerin). For the same variant, the surface expression score in series [2] was 1.95.
The like results for S257E were, in that order, 0.154, 0.368, 1.26, 1.61 and 1.65.
On to S257Y, for which the cAMP reporter score was -0.201 in series [1] (pH 5.5); -0.803 in series [1] (pH 6); -1.13 in series [1] (pH 6, modulator: ogerin).
As to S257K, the cAMP reporter score was determined as 0.675 in series [1] (pH 5.5); 0.789 in series [1] (pH 6, modulator: ogerin); 0.149 in series [1] (pH 6.5, modulator: ogerin). In addition, the surface expression score in series [2] was -0.492.
As for S257A, the cAMP reporter score in series [1] (pH 5.5) is 0.156; in series [1] (pH 6) it was -1.53; in series [1] (pH 6, modulator: ogerin), -1.01; in series [1] (pH 6.5, modulator: ogerin) it was -0.659. Moreover, in series [2], the surface expression score was -1.8.
The matching figures for S257P: -1.07, -1.52, -1.78, -1 and 1.09.
The matching figures for S257V: -1.56, -1.47, -2.21, -0.692 and -2.46.
Take S257C: the cAMP reporter score in series [1] (pH 5.5) is -0.219; in series [1] (pH 6), -0.306; in series [1] (pH 6, modulator: ogerin), -0.331; in series [1] (pH 6.5, modulator: ogerin), -0.649. Also, the surface expression score in series [2] is -0.897.
For S257H, the cAMP reporter score in series [1] (pH 5.5) turned out to be 1.57; in series [1] (pH 6) it was 0.51; in series [1] (pH 6, modulator: ogerin), 2.08; in series [1] (pH 6.5, modulator: ogerin), 0.456. The surface expression score in series [2] was found to be 1.47.
Consider S257Q, for which the cAMP reporter score in series [1] (pH 5.5) is -0.385; in series [1] (pH 6), -0.041; in series [1] (pH 6, modulator: ogerin), 0.525. Besides, the surface expression score in series [2] is -0.371.
With S257F, the cAMP reporter score in series [1] (pH 5.5) is -1.16; in series [1] (pH 6) it was -0.773; in series [1] (pH 6, modulator: ogerin) it was -1.39; in series [1] (pH 6.5, modulator: ogerin), -1.41. Moreover, in series [2], the surface expression score is -1.51.
In the case of S257R, the cAMP reporter score was 0.497 in series [1] (pH 5.5); 0.373 in series [1] (pH 6, modulator: ogerin); -0.187 in series [1] (pH 6.5, modulator: ogerin). For the same variant, the surface expression score in series [2] stood at 0.12.
S257I: the cAMP reporter score in series [1] (pH 5.5) was -0.882; in series [1] (pH 6), -1.34; in series [1] (pH 6.5, modulator: ogerin) it was -0.12. Besides, the surface expression score in series [2] was -2.37.
For S257W, the cAMP reporter score was -1.18 in series [1] (pH 5.5); 1.16 in series [1] (pH 6); -0.744 in series [1] (pH 6, modulator: ogerin).
For the variant S257G, the cAMP reporter score in series [1] (pH 5.5) was 0.122; in series [1] (pH 6, modulator: ogerin), 0.482; in series [1] (pH 6.5, modulator: ogerin), 1.11. Further, in series [2], the surface expression score is -0.446.
Take S257N: the cAMP reporter score in series [1] (pH 5.5) turned out to be 0.6; in series [1] (pH 6), 1.43; in series [1] (pH 6, modulator: ogerin), 0.562; in series [1] (pH 6.5, modulator: ogerin), 1.39. In series [2], the surface expression score worked out at 0.837.
Regarding S257T, the cAMP reporter score in series [1] (pH 5.5) came to 0.88; in series [1] (pH 6, modulator: ogerin), 0.513; in series [1] (pH 6.5, modulator: ogerin) it was 0.512. Besides, in series [2], the surface expression score was -0.194.
On to S257M, for which the cAMP reporter score in series [1] (pH 5.5) was -0.793; in series [1] (pH 6), -1.33; in series [1] (pH 6.5, modulator: ogerin), -0.631. In series [2], the surface expression score is -2.92.
Consider S257L, for which the cAMP reporter score was -0.939 in series [1] (pH 5.5); -0.583 in series [1] (pH 6); -0.454 in series [1] (pH 6.5, modulator: ogerin). In series [2], the surface expression score is -1.73.
R251del: the cAMP reporter score in series [1] (pH 5.5) is -1.71; in series [1] (pH 6), -1.79; in series [1] (pH 6, modulator: ogerin), -2.23; in series [1] (pH 6.5, modulator: ogerin), -1.11. For the same variant, in series [2], the surface expression score was -2.38.
The like results for S252_W254del were, in that order, -1.4, -0.478, -1.52, -0.807 and -2.71.
L248_L249insGSG: the cAMP reporter score in series [1] (pH 5.5) is -0.65; in series [1] (pH 6) it was -0.132; in series [1] (pH 6, modulator: ogerin) it was -2.24; in series [1] (pH 6.5, modulator: ogerin) it was -1.53. The surface expression score in series [2] is -1.62.
For S252_V253del, the cAMP reporter score in series [1] (pH 5.5) is -1.69; in series [1] (pH 6), -1.12; in series [1] (pH 6.5, modulator: ogerin), -0.866. Besides, the surface expression score in series [2] was -2.62.
Consider S252_V253insGS, for which the cAMP reporter score is -1.71 in series [1] (pH 5.5); -0.299 in series [1] (pH 6); -2.37 in series [1] (pH 6, modulator: ogerin); -1.13 in series [1] (pH 6.5, modulator: ogerin). Moreover, in series [2], the surface expression score is -1.43.
The like results for V250_S252del were, in that order, -0.445, -1.17, -1.82, -1.34 and -2.31.
For E255del, the cAMP reporter score in series [1] (pH 5.5) was -1.1; in series [1] (pH 6) it was -0.446; in series [1] (pH 6, modulator: ogerin) it was -1.85; in series [1] (pH 6.5, modulator: ogerin) it was -0.38. Also, the surface expression score in series [2] came out at 0.81.
The like results for A256_S257insG were, in that order, 0.682, -0.509, 0.126, -0.744 and 2.09.
Consider W254Y, for which the cAMP reporter score in series [1] (pH 5.5) is -0.76; in series [1] (pH 6), -0.986; in series [1] (pH 6, modulator: ogerin), -0.219; in series [1] (pH 6.5, modulator: ogerin), -0.762.
Turning to W254E, the cAMP reporter score in series [1] (pH 5.5) is -0.464; in series [1] (pH 6), -2.65; in series [1] (pH 6, modulator: ogerin) it was -2.15; in series [1] (pH 6.5, modulator: ogerin), -0.572. Moreover, in series [2], the surface expression score came to 0.157.
As for W254C, the cAMP reporter score is 1.17 in series [1] (pH 5.5); -0.061 in series [1] (pH 6); 0.783 in series [1] (pH 6, modulator: ogerin); -0.473 in series [1] (pH 6.5, modulator: ogerin). Further, in series [2], the surface expression score is -1.52.
